Test results: publication PMC4336329 (PLoS ONE, 2015)
Out of some 310,000 compounds screened, about 2,200 (0.71%) showed an effect of 50% or more. Effects have a minus sign here. Some of the results follow.

Biological target: human ether-à-go-go-related gene (hERG) potassium channel (human, UniProt Q12809)
Test: primary screen, population patch clamp on CHO cells stably expressing hERG

Chain of human ether-à-go-go-related gene (hERG) potassium channel (Q12809 whole entry, looked up): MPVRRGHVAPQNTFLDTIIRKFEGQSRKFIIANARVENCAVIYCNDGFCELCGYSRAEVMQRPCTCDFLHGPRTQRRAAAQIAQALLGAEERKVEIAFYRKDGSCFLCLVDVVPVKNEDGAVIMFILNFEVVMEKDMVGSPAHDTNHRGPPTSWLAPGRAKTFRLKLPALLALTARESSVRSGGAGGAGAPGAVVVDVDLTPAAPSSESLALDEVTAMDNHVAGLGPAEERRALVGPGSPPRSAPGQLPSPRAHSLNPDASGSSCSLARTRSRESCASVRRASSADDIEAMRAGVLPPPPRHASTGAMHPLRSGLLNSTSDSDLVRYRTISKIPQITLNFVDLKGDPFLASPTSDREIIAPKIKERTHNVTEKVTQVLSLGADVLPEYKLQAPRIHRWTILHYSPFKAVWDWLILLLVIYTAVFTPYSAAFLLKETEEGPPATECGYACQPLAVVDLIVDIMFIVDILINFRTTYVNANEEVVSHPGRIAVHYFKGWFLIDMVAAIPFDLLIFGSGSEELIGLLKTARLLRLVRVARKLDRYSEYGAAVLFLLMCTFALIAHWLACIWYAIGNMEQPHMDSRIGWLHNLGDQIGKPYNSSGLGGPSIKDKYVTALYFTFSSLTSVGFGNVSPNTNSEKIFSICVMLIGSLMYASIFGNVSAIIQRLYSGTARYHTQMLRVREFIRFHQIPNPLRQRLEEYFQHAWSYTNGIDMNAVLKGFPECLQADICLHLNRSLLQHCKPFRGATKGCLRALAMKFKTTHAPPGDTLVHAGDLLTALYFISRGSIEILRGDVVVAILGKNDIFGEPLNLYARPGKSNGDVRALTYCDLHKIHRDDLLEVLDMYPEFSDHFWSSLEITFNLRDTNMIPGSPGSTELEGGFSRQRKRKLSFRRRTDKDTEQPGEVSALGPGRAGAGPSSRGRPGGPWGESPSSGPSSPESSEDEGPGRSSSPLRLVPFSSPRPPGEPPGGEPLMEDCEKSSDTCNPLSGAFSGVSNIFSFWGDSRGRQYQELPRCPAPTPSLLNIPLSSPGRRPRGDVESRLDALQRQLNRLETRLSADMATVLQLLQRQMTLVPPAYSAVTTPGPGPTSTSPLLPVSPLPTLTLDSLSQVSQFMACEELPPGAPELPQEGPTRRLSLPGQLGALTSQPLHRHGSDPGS

SMILES | hERG current change (%, negative = inhibition) at 1uM
CC(C)N=c1scc(-c2ccco2)n1/N=C/c1ccc(O)c(O)c1 | -5.94%
Cc1ccc2nc(/N=C(\N)NC(=O)NC3CCCCC3)nc(C)c2c1 | -0.339%
O=C(Cn1cc([N+](=O)[O-])ccc1=O)N1CCCc2ccccc21 | 14.1%
O=C(CN(Cc1ccc(F)cc1)C(=O)Cn1nnc2ccccc21)NCC1CCCO1 (stereo not drawn) | 9.55%
COc1cc(S(=O)(=O)N(Cc2ccccn2)Cc2ccccc2Cl)ccc1-n1cnnn1 | 4.86%
O=C(OCC(=O)N1CCCC1)c1ccc(S(=O)(=O)Nc2ccccc2)cc1 | -0.807%
O=C(CNC(=O)c1ccccc1F)c1ccccc1 | 15.3%
CCCN(CCC)CC(O)CN(c1cc([N+](=O)[O-])ccc1OC)S(=O)(=O)c1ccccc1.Cl (stereo not drawn) | -13.3%
CCN1CCN(c2nc(Nc3ccccc3F)nc(N)c2[N+](=O)[O-])CC1 | -15.7%
COCCN1C(=O)C(=O)/C(=C(/O)c2ccc(S(=O)(=O)N3CCCCC3)cc2)C1c1ccc(OC)c(OC)c1 (stereo not drawn) | 5.26%
COc1ccc2nc(NC(=O)Nc3ccccc3)sc2c1 | 0.308%
CN(C)c1ccc(C(=O)N2CCNC(=O)C2CC(=O)Nc2ccc(F)cc2)cc1 (stereo not drawn) | 11.7%
NC(=S)Nc1ncc(C(F)(F)F)cc1Cl | 8.78%
CCOC(=O)Cn1cc(C#N)c2cccc(CC)c21 | 7.9%
CC(=O)SCC(=O)N=c1sc2cc(F)ccc2n1C | 5.74%
Nc1nc(-c2ccc3c(c2)OCCO3)c(CC(=O)O)s1 | 15.7%
c1ccc(-c2cc3nccc(-c4ccccn4)n3n2)cc1 | 7.53%
CCOC(=O)c1ccc(NC(=S)N(CCCN2CCN(C)CC2)Cc2cccs2)cc1 | -7.16%
CC(NC(=O)[C@@H](NC(=O)[C@@H]1Cc2ccccc2CN1)C(C)C)c1ccccc1 (stereo partly drawn) | 13.9%
O=C(NC(=S)NCCCN1CCOCC1)c1ccc([N+](=O)[O-])cc1 | 2.92%
CCOC(=O)N1CCC(NC(=O)c2oc3c(c2C)-c2[nH]ncc2CC3)CC1 | 16%
COc1ccc(Cc2nnc(NC(=O)c3c(-c4ccccc4)noc3C)s2)cc1 | -5.73%

SMILES | hERG current change (%, negative = inhibition) at 1uM
O=c1[nH]c(=O)n(Cc2ccco2)c2c1C(C(F)(F)F)(C(F)(F)F)N=C(C1CCCCC1)N2 | 4.51%
COc1ccc(S(=O)(=O)N2CCN(c3nn(C)c(=O)n(C)c3=O)CC2)cc1 | -13%
CC(=O)N1CCN=C1SCc1c(F)cccc1Cl | -2.41%
CC(C)(C)NC(=O)CN(C(=O)C1CSC(=O)C1)c1ccccc1F (stereo not drawn) | -7.39%
O=c1cc(O)c2c(=O)n(-c3ccccc3)c3c(c2o1)CCCCCC3 | 6.79%
CCOC(=O)C(C)n1cnc2scc(-c3ccc(C)cc3)c2c1=O (stereo not drawn) | 12.6%
Cc1cc(Oc2nc3ccccn3c(=O)c2/C=C(\C#N)C(=O)NC2CCS(=O)(=O)C2)ccc1Cl (stereo not drawn) | 12%
CCN1C(=O)[C@H]2[C@@H](c3ccc(SC4CCCCC4)cc3)N[C@@](CC(C)C)(C(=O)OC)[C@H]2C1=O.O=C(O)C(F)(F)F | 7.81%
CCOC(=O)C1=C(N)OC2=C(C(=O)CCC2)C1c1cccnc1 (stereo not drawn) | 11.8%
CC1(C)CC(=O)C2=C(C1)N(C1CCCCC1)C(=O)C2(O)C(F)(F)F (stereo not drawn) | 8.42%
CC(=O)Nc1c(OC(C)=O)ccc2c(C)cc(=O)oc12 | 5.64%
O=C(Cc1c(F)cccc1Cl)N1CCN(C(=O)c2ccco2)CC1 | 3.01%
O=C(O)C12C3CCCC1C32c1ccccc1 (stereo not drawn) | 20.1%
Cc1ccc(CNC(=O)C2CCC(=O)N2Cc2ccc(F)cc2)cc1 (stereo not drawn) | 8.23%
O=C(OCc1cccc([N+](=O)[O-])c1)c1cc(=O)[nH]c2ccccc12 | 12.9%
CC(=O)N1CCN(C(=O)c2ccc(C(=O)c3ccccc3)cc2)CC1 | 14.4%
O=C(COc1ccc2c3c(c(=O)oc2c1)CCCC3)N1CCN(c2ccccc2)CC1 | 13.9%
Cc1cc2cc3c(cc2nc1SCC(=O)Nc1nc(C)c(C)s1)OCO3 | 6.12%
CC1CCCN(C(=O)/C(=C/c2ccco2)NC(=O)c2ccccc2)C1 (stereo not drawn) | -4.9%
Cc1ccccc1NC(=O)c1cc(S(=O)(=O)N2CCCCC2)cs1 | -0.961%
COc1ccc(C(=O)CSc2nnc(CNC(=O)c3ccco3)n2C)cc1 | 4.04%
O=C(O)c1ccc(-n2cccc2)cc1O | 3.45%

SMILES | hERG current change (%, negative = inhibition) at 1uM
CCCC(=O)Nc1ccc(-c2nc3ncccc3o2)cc1 | 10.1%
Cc1ccc(C(=O)Nc2ccc(O)cc2C(=O)O)cc1C | 10.7%
COC(=O)c1ccc(-c2nc(CN3CCN(Cc4cccc(C)c4)CC3)c(C)o2)cc1 | 8.93%
CCC(C)(C)C1CCc2[nH]nc(C(=O)NC3CCCC3)c2C1 (stereo not drawn) | 11.2%
CC(=O)c1c(C)[nH]c(C(=O)Nc2cc(F)ccc2C)c1C | 20.5%
COC(=O)C1C(=O)N2CCCSC2=C(C#N)C1c1cccs1 (stereo not drawn) | 11.8%
CC1(C)CC(=O)C2=C(C1)N(CCN1CCOCC1)C1=C(C(=O)CC(C)(C)C1)C2c1cccc(Cl)c1 | -17.5%
O=C(Nc1ccnn1C1CCN(C2CCCC2)CC1)c1ccccc1 | 13.3%
COc1ccc(Oc2ccc(NC(=O)c3ccccc3C)cc2)cc1 | 6.57%
Cc1nc(SCc2cccnc2)[nH]c(=O)c1C | 12.3%
CCc1ccc(NC(=O)CSc2nc(=O)n(CCN(C)C)c3c2CCCC3)cc1 | 3.35%
O=C(NCC(c1cccs1)N1CCOCC1)c1ccccc1NS(=O)(=O)c1ccc(Br)cc1 (stereo not drawn) | -10.5%
Cc1ccc(C(=O)C(NC(=O)c2ccco2)N2CCOCC2)cc1 (stereo not drawn) | 13.1%
Cc1nc2ccccc2c(=O)n1NS(C)(=O)=O | 11.5%
O=S(=O)(NC1=NCCC1)c1cccc(NS(=O)(=O)c2ccc(OC(F)(F)F)cc2)c1 | 7.7%
O=C(Nc1ccccc1OC(F)F)c1ccc(S(=O)(=O)N2CCCC2)cc1 | 9.59%
CCOc1cc(CNCc2ccncc2)cc(Cl)c1OC.Cl | 20.1%
COc1cc(Cl)c(C)cc1NC(=O)c1cc(S(=O)(=O)N(C)C)ccc1N1CCCC1 | 6.5%
O=C(N/N=C/c1ccc2c(c1)OCO2)C(=O)Nc1ccc2ccccc2c1 | 5.56%
COc1ccc(CNC(=O)Nc2ccc(C)c(C)c2)cc1 | 9.9%
Nc1nnc(-c2ccccc2)c(-c2ccccc2)n1 | 3.06%
CCc1nc2c(c(=O)[nH]1)C1(CCCC1)Cc1ccccc1-2 | 15.1%

SMILES | hERG current change (%, negative = inhibition) at 1uM
CCN1Cc2c(/C=C/c3ccccc3)nc3ccc(OC)cc3c2N(c2cccc(Cl)c2)C1 | 12%
CCC(C)c1c(O)nc(SCC(=O)Nc2ccccc2)[nH]c1=O (stereo not drawn) | 13%
Clc1ccc(-c2cnn3c(-c4ccncc4)ccnc23)cc1 | 1.39%
O=C(CCN1CCCCO1)N1CCCC(Nc2ccc(F)c(F)c2)C1 (stereo not drawn) | 3.72%
CCOC(=O)C1CCCCN1C(=O)c1oc2c(Cl)cc(C)cc2c1C (stereo not drawn) | 14.2%
COc1ccc(C(=O)COC(=O)CCCn2c(=O)oc3ccccc32)cc1 | -11.2%
O=C(CN1CCC(O)(c2cccc(F)c2)CC1)NCCc1c[nH]c2ccccc12 | 1.69%
CCOc1ccc(CCNC(=O)COC(=O)c2cccnc2SC)cc1OCC | 1.62%
CN(CC(=O)Nc1ccc(N2CCOCC2)cc1)C(=O)CCCOc1ccc(Cl)cc1Cl | 8.61%
CC(=O)c1sc(NC(=O)c2cccnc2Cl)nc1C | -1.52%
O=C(O)CCC(=O)OCc1c(-c2ccccc2)ncc2ccccc12 | 13.8%
CC(C)NC[C@H](O)COc1ccc(CC(N)=O)cc1 | 14.6%
Cc1cc(Br)ccc1NC(=O)CNC(=O)Cc1ccc(S(=O)(=O)N2CCOCC2)s1 | -8.88%
CCC(=NCCCN(C)C)c1c(O)n(-c2ccc(OC)cc2)c(=O)[nH]c1=O | 2.1%
N#Cc1cnc(SCC(=O)c2ccccc2)nc1N | 2.71%
O=C(Nc1nccs1)c1ccc(COc2ccc(F)cc2)o1 | 5.48%
CCc1cccc(CC)c1NC(=O)COC(=O)c1ccc(F)c(S(=O)(=O)N(CC)CC)c1 | -1.06%
COc1ccc(-n2c(=S)[nH]c3cc(C(=O)NCCCN4CCOCC4)ccc3c2=O)c(OC)c1.Cl | 7.69%
COC(=O)C1CCN(C2=C(NS(=O)(=O)c3ccc(Cl)cc3)C(=O)c3ccccc3C2=O)CC1 | 2.44%
O=C(CS(=O)(=O)c1cn(CC(=O)N2CCOCC2)c2ccccc12)NCc1ccccc1 | 10.6%
COc1ccc(-c2nc(N)ncc2-c2ccc(OC)c(OC)c2)c(O)c1 | 3.87%
